Measurements from the supplement of paper PMC7826260.
Some of the results follow. Viral Rep nickase domains cut single-stranded DNA in vitro at 3 µM enzyme and 37 °C for 1 h; the strands have 90 letters, of which the middle is given. Uncut reads are compared with the no-enzyme pool on a log2 scale; the lower, the more was cut; hits are not called. The scaling is to total reads, so uncut sequences can rise above 0 when many others are cut.

Columns and labels:
Assay in all cases: uncleaved DNA left, log2 of reads against the no-enzyme library (log2 ratio); higher = less cleavage (more negative = more Rep cleavage of the k-mer); sequences stand for … in CTCGTCCG…ACCGGAGA
[1] = tested on: T1, Rep nickase domain of Muscovy duck circovirus
T1 sequence (Rep 1-111, printed without the tag): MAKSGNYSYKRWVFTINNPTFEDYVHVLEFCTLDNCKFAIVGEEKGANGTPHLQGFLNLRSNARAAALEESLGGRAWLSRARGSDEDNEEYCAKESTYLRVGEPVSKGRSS
Procedure: (§1)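 A pool of 90-nt single-stranded DNAs with seven random bases just before the constant AC of the nick site (name = the seven bases) was cut by 3 µM recombinant His6-SUMO-tagged Rep nickase domain (300 nM DNA, 50 mM HEPES pH 8.0, 50 mM NaCl, 1 mM MnCl2, 1 h, 37 °C, three replicates). Uncut DNA was amplified and sequenced.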

[2] = tested on: T2, Rep nickase domain of banana bunchy top virus
T2 sequence (Rep 1-94, printed without the tag): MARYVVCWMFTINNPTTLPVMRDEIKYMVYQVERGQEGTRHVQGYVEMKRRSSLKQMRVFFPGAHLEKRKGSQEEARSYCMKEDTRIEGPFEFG
Procedure: as §1

[3] = tested on: T3, Rep nickase domain of cabbage leaf curl virus
T3 sequence (Rep 1-116, printed without the tag): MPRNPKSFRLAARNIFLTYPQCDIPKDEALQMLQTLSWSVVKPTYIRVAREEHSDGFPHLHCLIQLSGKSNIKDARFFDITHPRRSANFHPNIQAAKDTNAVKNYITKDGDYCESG
Procedure: as §1

[4] = tested on: T4, Rep nickase domain of chickpea chlorotic dwarf virus
T4 sequence (Rep 1-124, printed without the tag): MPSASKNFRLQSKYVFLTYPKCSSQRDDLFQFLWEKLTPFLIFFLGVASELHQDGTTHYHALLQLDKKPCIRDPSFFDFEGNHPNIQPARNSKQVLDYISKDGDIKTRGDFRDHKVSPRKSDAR
Procedure: as §1

[5] = tested on: T5, Rep nickase domain of faba bean necrotic yellows virus
T5 sequence (Rep 1-98, printed without the tag): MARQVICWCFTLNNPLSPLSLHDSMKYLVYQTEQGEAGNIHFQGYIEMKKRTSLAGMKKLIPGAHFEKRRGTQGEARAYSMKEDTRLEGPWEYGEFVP
Procedure: as §1

[6] = tested on: T6, Rep nickase domain of maize striate mosaic virus
T6 sequence (Rep 1-117, printed without the tag): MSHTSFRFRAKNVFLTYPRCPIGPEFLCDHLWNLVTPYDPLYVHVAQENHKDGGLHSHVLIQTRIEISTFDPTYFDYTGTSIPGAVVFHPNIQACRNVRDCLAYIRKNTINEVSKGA
Procedure: as §1

[7] = tested on: T7, Rep nickase domain of porcine circovirus 2
T7 sequence (Rep 2-116, printed without the tag): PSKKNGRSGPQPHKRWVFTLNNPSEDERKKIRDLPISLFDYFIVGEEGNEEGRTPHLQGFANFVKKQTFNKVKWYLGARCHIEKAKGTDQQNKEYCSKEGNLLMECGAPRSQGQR
Procedure: as §1

[8] = tested on: T8, Rep nickase domain of tomato golden mosaic virus
T8 sequence (Rep 1-124, printed without the tag): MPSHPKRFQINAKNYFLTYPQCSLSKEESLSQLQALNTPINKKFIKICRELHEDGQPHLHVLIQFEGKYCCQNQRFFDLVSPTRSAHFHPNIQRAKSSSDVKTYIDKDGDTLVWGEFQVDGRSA
Procedure: as §1

[9] = tested on: T9, Rep nickase domain of tomato yellow leaf curl virus
T9 sequence (Rep 1-136, printed without the tag): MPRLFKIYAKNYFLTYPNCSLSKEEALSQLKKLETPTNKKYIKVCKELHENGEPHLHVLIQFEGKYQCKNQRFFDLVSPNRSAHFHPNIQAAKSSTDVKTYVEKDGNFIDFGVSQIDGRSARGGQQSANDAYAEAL
Procedure: as §1

[10] = tested on: T10, Rep nickase domain of wheat dwarf virus
T10 sequence (Rep 1-137, printed without the tag): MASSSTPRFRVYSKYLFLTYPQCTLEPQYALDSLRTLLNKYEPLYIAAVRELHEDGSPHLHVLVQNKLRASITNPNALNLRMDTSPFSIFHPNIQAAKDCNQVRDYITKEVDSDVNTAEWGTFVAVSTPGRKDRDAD
Procedure: as §1

Sequence	uncleaved DNA left (log2) [1]	uncleaved DNA left (log2) [2]	uncleaved DNA left (log2) [3]	uncleaved DNA left (log2) [4]	uncleaved DNA left (log2) [5]	uncleaved DNA left (log2) [6]	uncleaved DNA left (log2) [7]	uncleaved DNA left (log2) [8]	uncleaved DNA left (log2) [9]	uncleaved DNA left (log2) [10]
GCCATAG	-0.0274	-0.0329	-0.752	-0.472	0.0725	-1.03	0.295	0.0813	0.151	-0.0681
TAGTGTG	0.118	0.0998	-0.638	-0.206	0.123	-0.94	-0.241	-0.0438	0.184	0.000113
CAGAAGA	-0.0299	-0.12	-0.284	-0.517	0.0386	-1.09	-0.055	0.0844	0.0251	-0.0695
GCCTTGA	-0.271	-0.159	-0.221	0.0694	-0.15	-0.44	-0.0725	-0.0836	-0.101	-0.112
ATTAAAC	-0.0309	-0.0712	-0.06	-0.473	-0.0529	-0.82	-0.0213	-0.023	-0.0532	-0.00236
GCCTTCA	-0.0168	0.148	0.251	-0.0395	0.0017	0.415	-0.0532	0.144	0.00166	0.0264
AGTCATC	-0.0825	0.0967	0.254	0.53	-0.117	-0.136	-0.166	-0.0374	0.0408	0.142
GGTTAAC	0.0583	-0.00377	0.392	0.833	-0.0442	1.78	0.182	0.0311	0.057	0.0896
CACTCCC	0.0839	-0.0689	0.0162	-0.644	-0.0266	0.0313	-1.21	-0.0976	-0.0141	-0.00877
TCGAGTG	0.205	0.0711	0.206	0.71	0.112	1.23	0.112	0.208	-0.0164	0.0974
GCCAGGT	0.0803	0.0372	0.313	1.01	0.153	1.23	0.0794	-0.00456	-0.0991	0.0606
GGGTTTT	-0.102	0.0854	0.705	1.64	0.0443	2.14	-2.17	0.0296	0.0783	0.158
GCCTGAG	0.03	0.0762	-0.47	-0.287	-0.0738	-0.759	0.097	-0.0752	0.116	-0.151
CGAAAGA	-0.012	0.0158	-0.0262	0.0986	-0.0279	-0.58	-0.0489	-0.0488	-0.0261	-0.0648
CCCGCAC	-0.228	-0.211	-0.211	-0.429	-0.153	-0.711	-0.0866	-0.235	-0.112	-0.24
GAGTCTG	0.0125	0.128	0.0843	0.758	0.00439	1.55	-0.117	0.0922	-0.0415	0.0987
GCGGGAT	0.322	0.224	0.522	1.64	0.0557	1.95	0.36	0.203	0.0645	0.162
CTGTGGT	-0.0425	0.0774	0.238	0.0885	0.0326	0.179	-2.33	0.0357	0.117	0.0422
GCACTAT	0.0579	-0.026	0.0675	-0.189	0.109	0.0689	-0.00376	0.129	-0.0569	0.0888
AACGATG	0.00114	0.0136	0.0949	0.871	-0.0673	1.36	0.0503	0.152	-0.0538	-0.0329

Sequence	uncleaved DNA left (log2) [1]	uncleaved DNA left (log2) [2]	uncleaved DNA left (log2) [3]	uncleaved DNA left (log2) [4]	uncleaved DNA left (log2) [5]	uncleaved DNA left (log2) [6]	uncleaved DNA left (log2) [7]	uncleaved DNA left (log2) [8]	uncleaved DNA left (log2) [9]	uncleaved DNA left (log2) [10]
ACGTAAG	0.0123	-0.0556	-0.683	-0.354	0.0479	-1.2	0.21	0.0978	0.0607	0.0512
CTCAATG	-0.0177	-0.102	-0.661	-0.679	-0.021	-1.24	0.0452	-0.121	-0.0977	-0.13
TATCCAA	0.00858	0.0303	0.108	-0.0994	0.0198	-0.264	-0.067	-0.00456	0.093	0.0931
CTAAGCC	0.0726	-0.00468	-2.73	-2.47	0.138	-1.67	0.0851	-0.499	0.016	-1.01
TGAGTGA	0.0371	-0.075	-0.156	0.314	-0.0196	0.00763	-0.077	0.0637	-0.00476	-0.0279
AATCCAT	0.113	0.11	-0.0849	-1.18	0.0308	-0.323	-0.227	-0.0756	0.107	0.127
TAGAGTT	0.0514	-2.37	-2.66	-2.61	-1.39	-0.255	-3.57	-0.271	0.122	-0.298
ATAGCTA	-0.114	-0.0704	-0.144	-0.56	-0.0485	-0.266	-0.0673	-0.0295	-0.123	-0.0317
AGACTAG	-0.066	0.0711	-0.126	0.129	0.0115	-0.366	0.192	0.0056	0.00613	-0.0742
ATACAAC	-0.0631	0.0337	-0.121	-2.37	0.0583	-0.672	0.0766	0.058	-0.0823	0.0238
CTCCCAT	-0.0201	0.0308	0.126	-0.658	-0.00957	-0.407	-0.157	-0.215	0.165	0.0443
AGTCCTC	0.0068	0.0728	0.282	0.634	0.0222	0.633	-0.114	-0.12	0.0967	0.109
GTGTAAT	-0.0545	0.0959	0.397	0.913	-0.0338	1.89	-2.25	0.184	0.186	0.111
TGGCCTA	-0.0642	0.0366	0.381	0.236	0.00726	0.549	-0.0357	-0.0721	0.139	0.0522
GGCGCGG	-0.025	0.0969	0.141	0.555	0.0894	1.53	0.117	0.116	-0.153	-0.0122
TTTTCGC	-0.0624	-0.0764	-0.521	-0.874	-0.065	-1.13	0.0539	-0.205	-0.0505	-0.205
CCCACCC	-0.152	-0.105	0.0191	-0.786	-0.129	-0.278	-0.503	-0.0596	-0.144	-0.0232
TGCTCTT	-2.09	-0.181	-0.0417	-1.94	0.0313	-0.0992	-2.79	-0.174	-0.0835	-0.0561
GCTCTCC	-0.00537	-0.00195	-0.0905	0.288	-0.0454	0.952	0.0554	-0.0883	-0.0196	-0.00934
GATTCAC	-0.0133	0.0331	0.172	0.694	-0.0605	0.79	-0.0269	-0.066	0.087	0.135

Sequence	uncleaved DNA left (log2) [1]	uncleaved DNA left (log2) [2]	uncleaved DNA left (log2) [3]	uncleaved DNA left (log2) [4]	uncleaved DNA left (log2) [5]	uncleaved DNA left (log2) [6]	uncleaved DNA left (log2) [7]	uncleaved DNA left (log2) [8]	uncleaved DNA left (log2) [9]	uncleaved DNA left (log2) [10]
TAAAACA	0.0741	0.116	-2.38	-2.68	0.0731	-0.699	-0.0143	-0.0785	0.0774	-1.12
CGCGCGC	-0.0833	-0.195	-0.628	-0.571	-0.045	-0.586	-0.0276	-0.167	-0.152	-0.155
TTCCTGG	0.0347	-0.0194	0.183	0.633	-0.123	0.798	0.0249	-0.0744	-0.149	-0.0976
GACTTTA	0.112	0.118	0.105	-0.296	0.067	0.983	-1.64	0.148	0.127	0.184
TAAGTCT	0.0143	-0.101	-3.57	-3.16	-0.0292	-2.01	-0.559	-2.37	-0.0149	-3.45
TAAAATT	-0.716	-0.948	-4.47	-3.47	-0.0701	-3.57	-3.61	-3.91	-0.134	-4.16
GGTTCAA	0.044	0.107	0.452	1.24	0.0123	1.91	0.173	0.137	0.127	0.152
TACCAGG	-0.0213	0.0596	0.339	1.05	0.049	0.832	0.036	-0.00898	0.0331	0.0861
ACCCGCC	-0.0782	-0.106	-0.219	-0.2	-0.0318	-0.722	0.0816	-0.0403	-0.132	-0.151
CTTGCTC	-0.141	-0.0549	-0.461	-0.922	-0.041	-1.08	0.0706	-0.126	-0.0639	-0.113
CATGCTT	-0.0223	-1.25	-0.452	-2.47	-0.0979	-0.864	-0.98	0.0571	-0.00648	-0.0317
GCACTGA	0.0478	0.166	0.0338	0.519	-0.0936	0.841	0.133	0.0971	-0.0374	0.00266
ATTCCAA	-0.161	-0.103	-0.0901	-0.293	-0.116	-0.611	-0.728	-0.0899	-0.0327	0.0535
TCAACCT	-0.158	-0.0965	-0.184	-2.5	-0.031	-0.459	-1.16	-0.145	0.0192	-0.0815
CCTAAGG	0.149	0.213	0.493	1.29	0.000274	1.09	0.19	0.233	0.0732	0.0677
TAGCCTC	0.0385	0.00111	0.0967	-0.328	0.00945	0.0471	-1.31	0.00511	0.0978	0.127
TGTTCAC	-0.00844	0.124	0.38	0.837	-0.0695	1.63	0.0695	0.0153	0.0859	0.116
CTCTTTA	-0.126	-0.171	-0.202	-1.68	-0.0524	-0.973	-0.124	-0.161	-0.175	-0.0321
CTGTGAT	-0.0803	0.0223	0.329	1.23	-0.0981	1.62	-1.42	0.125	0.0113	0.0444
GTCCCAA	0.102	0.127	0.248	0.889	-0.0771	1.76	0.0278	0.181	0.146	0.116
